The text below walks through data of paper PMC4336329 (PLoS ONE, 2015).

About 14,000 (4.5%) of roughly 310,000 compounds showed an effect of 50% or more. Effects have a minus sign here. This is one part of the list.
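Further: peak tail current of the secondary pulse compared with the same well before compound.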

In this test the target is human ether-à-go-go-related gene (hERG) potassium channel (human, UniProt Q12809). Nature of the test: primary screen, population patch clamp on CHO cells stably expressing hERG.
Sequence of human ether-à-go-go-related gene (hERG) potassium channel (Q12809 whole entry, looked up): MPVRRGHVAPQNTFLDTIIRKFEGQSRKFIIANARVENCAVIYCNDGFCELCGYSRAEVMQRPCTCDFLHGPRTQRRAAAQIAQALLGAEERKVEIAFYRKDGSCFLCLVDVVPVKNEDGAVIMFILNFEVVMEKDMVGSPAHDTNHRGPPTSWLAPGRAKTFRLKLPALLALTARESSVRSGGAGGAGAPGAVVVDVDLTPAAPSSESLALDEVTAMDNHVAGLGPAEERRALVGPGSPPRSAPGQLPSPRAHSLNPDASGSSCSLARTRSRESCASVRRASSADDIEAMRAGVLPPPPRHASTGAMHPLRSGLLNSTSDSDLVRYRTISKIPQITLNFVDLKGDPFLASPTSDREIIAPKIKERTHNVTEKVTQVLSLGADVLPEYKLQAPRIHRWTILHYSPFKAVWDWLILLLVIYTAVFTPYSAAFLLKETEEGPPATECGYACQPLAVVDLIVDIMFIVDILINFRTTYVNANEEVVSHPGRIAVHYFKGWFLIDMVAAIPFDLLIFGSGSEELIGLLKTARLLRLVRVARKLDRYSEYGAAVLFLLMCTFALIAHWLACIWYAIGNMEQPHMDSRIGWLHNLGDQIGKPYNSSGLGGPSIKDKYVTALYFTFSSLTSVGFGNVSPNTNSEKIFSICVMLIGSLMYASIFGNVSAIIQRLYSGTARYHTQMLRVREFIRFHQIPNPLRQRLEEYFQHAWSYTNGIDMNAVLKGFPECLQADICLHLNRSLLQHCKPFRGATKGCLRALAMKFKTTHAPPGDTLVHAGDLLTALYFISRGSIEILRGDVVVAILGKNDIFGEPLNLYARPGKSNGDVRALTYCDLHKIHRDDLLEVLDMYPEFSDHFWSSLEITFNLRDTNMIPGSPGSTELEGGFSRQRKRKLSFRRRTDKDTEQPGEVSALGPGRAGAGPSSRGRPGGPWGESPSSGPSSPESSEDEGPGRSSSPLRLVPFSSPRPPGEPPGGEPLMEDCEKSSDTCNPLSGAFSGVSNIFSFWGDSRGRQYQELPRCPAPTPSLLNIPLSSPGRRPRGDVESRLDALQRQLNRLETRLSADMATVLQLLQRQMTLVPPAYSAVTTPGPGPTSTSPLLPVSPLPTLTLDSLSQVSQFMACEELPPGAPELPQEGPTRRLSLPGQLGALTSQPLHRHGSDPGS
As for `CCOC(=O)C1CCN(C(=O)CCN2C(=O)C3C4C=CC(C4)C3C2=O)CC1` (centres unmarked), the “hERG current change (%, negative = inhibition) at 10uM” value is given as 7.09%.

Turning to `Cc1ccc(N(Cc2ccccc2)C(=O)c2cccc(S(=O)(=O)N3CCN(C)CC3)c2)cc1`, the “hERG current change (%, negative = inhibition) at 10uM” value is -52.7%.

For `CC(=O)O[C@]1(C(C)=O)CCC2C3C=C(C)C4=CC(=O)CC[C@]4(C)C3CC[C@@]21C` (some centres unmarked), the “hERG current change (%, negative = inhibition) at 10uM” value came out at 0.054%.

`Cc1ccc(-c2c(C(=O)N/N=C/c3cccs3)nnn2-c2nonc2N)cc1`: the “hERG current change (%, negative = inhibition) at 10uM” value came out at 29.8%.

Regarding `Cc1ccc(C)c(N2CCN(C(=O)C3CCCN(c4ncnc5c4nc4n5CCCCC4)C3)CC2)c1` (centres unmarked), the “hERG current change (%, negative = inhibition) at 10uM” value was -33.6%.

In the case of `COC(=O)C1CCN(C(c2cc(OC)c(OC)c(OC)c2)c2sc3nc(C)nn3c2O)CC1` (centres unmarked), the “hERG current change (%, negative = inhibition) at 10uM” value is listed as 5.82%.

Consider `Cc1[nH]n(-c2ccc([N+](=O)[O-])cc2)c(=O)c1C=NCCN1CCN(C(=O)c2ccccc2)CC1`, for which the “hERG current change (%, negative = inhibition) at 10uM” value is reported as -71.6%.

With `Cc1ccc([N+](=O)[O-])cc1NC(=O)CNC1CCCCC1`, the “hERG current change (%, negative = inhibition) at 10uM” value is 7.17%.

Turning to `CS(=O)(=O)N1CCN(C(=O)c2ccccc2)C1`, the “hERG current change (%, negative = inhibition) at 10uM” value is listed as 18.2%.

For `Cc1ccnc(NC(=O)CCS(=O)(=O)c2ccccc2)c1`, the “hERG current change (%, negative = inhibition) at 10uM” value was 25.6%.

Take `C/C(=N/NC(=O)Cc1ccccc1)c1ccc(C)s1`: the “hERG current change (%, negative = inhibition) at 10uM” value is 13%.

As to `O=C(COC(=O)CN1C(=O)c2ccccc2C1=O)Nc1ccc(S(=O)(=O)N2CCCC2)cc1`, the “hERG current change (%, negative = inhibition) at 10uM” value is on record as -15.5%.

With `O=C(CN1CCN(c2ccccn2)CC1)N1c2ccccc2Sc2ccc(C(F)(F)F)cc21`, the “hERG current change (%, negative = inhibition) at 10uM” value is listed as -12.4%.

As to `O=C(C1CCCCC1)N1CCCc2ccccc21`, the “hERG current change (%, negative = inhibition) at 10uM” value was -5.03%.

Regarding `Cc1ccc(O)c(C(=O)c2cnn(C(=O)Cc3csc(C)n3)c2)c1`, the “hERG current change (%, negative = inhibition) at 10uM” value is recorded as -1.48%.

Turning to `Oc1[nH]c2ccccc2c1C=Nc1ccc2c(c1)OCO2`, the “hERG current change (%, negative = inhibition) at 10uM” value is listed as -0.727%.

For `COc1ccc(/C=c2\s/c(=C\C(=O)C(C)(C)C)[nH]c2=O)cc1O`, the “hERG current change (%, negative = inhibition) at 10uM” value was -5.93%.

Take `CCOc1cc(/C=C2\SC(=S)N(N3CCOCC3)C2=O)ccc1O`: the “hERG current change (%, negative = inhibition) at 10uM” value came out at 2.31%.

With `COc1ccc(Cl)c(NC(=O)Nc2c(C)n(-c3ccccc3)c(=O)n2C)c1`, the “hERG current change (%, negative = inhibition) at 10uM” value worked out at 8.98%.

As to `Cc1nn(-c2ccccc2)c(=S)n1-c1ccccc1`, the “hERG current change (%, negative = inhibition) at 10uM” value worked out at 10.3%.

As to `COc1ccccc1N1CCN(Cc2ccccc2)CC1.O=C(O)C(=O)O`, the “hERG current change (%, negative = inhibition) at 10uM” value is on record as -7.21%.

As to `CN(C)c1ccc(CN(C(=O)COc2ccc(F)cc2)C2CCS(=O)(=O)C2)cc1` (centres unmarked), the “hERG current change (%, negative = inhibition) at 10uM” value is -16.6%.

As to `O=S1(=O)N=C(N/N=C/c2ccccn2)c2ccccc21`, the “hERG current change (%, negative = inhibition) at 10uM” value turned out to be 7.89%.

Take `O=C(Nc1cccc(F)c1)/C(=C\c1cccnc1)NC(=O)c1cccs1`: the “hERG current change (%, negative = inhibition) at 10uM” value was -2.63%.

For `COC(=O)CN(C)C1CC(=O)N(c2ccc(Cl)cc2)C1=O` (centres unmarked), the “hERG current change (%, negative = inhibition) at 10uM” value was -9.9%.

In the case of `CC(C)(C)c1ccc(C2(C)NC(=O)NC2=O)cc1` (centres unmarked), the “hERG current change (%, negative = inhibition) at 10uM” value was found to be 13.3%.

`COc1ccccc1C(CNC(=O)C(CCSC)NS(=O)(=O)c1ccccc1F)N1CCCC1` (centres unmarked): the “hERG current change (%, negative = inhibition) at 10uM” value is listed as -29.4%.

Take `O=S(=O)(NCc1cccc(C(F)(F)F)c1)NCc1ccccc1F`: the “hERG current change (%, negative = inhibition) at 10uM” value is listed as -13.3%.

Take `CCc1ccc(NC(=O)C2CCCN2c2nn3c(=O)cc(C)nc3s2)cc1` (centres unmarked): the “hERG current change (%, negative = inhibition) at 10uM” value is -39.5%.

For the molecule `Cc1cccc(Nc2nc(-c3ccc(F)cc3)cs2)n1`, the “hERG current change (%, negative = inhibition) at 10uM” value was found to be 9.58%.

In the case of `N/C(=N\OC(=O)COc1ccc(Br)cc1)c1ccncc1`, the “hERG current change (%, negative = inhibition) at 10uM” value is 5.98%.

With `COc1cc2c(cc1OC)C(c1ccccc1Br)NC(=O)C2` (centres unmarked), the “hERG current change (%, negative = inhibition) at 10uM” value is 10.4%.

In the case of `Nc1ccc(S(N)(=O)=O)cc1`, the “hERG current change (%, negative = inhibition) at 10uM” value was determined as 5.7%.

Turning to `CC(=NCC1CCCO1)c1c(O)n(-c2ccc(Cl)cc2)c(=O)[nH]c1=O` (centres unmarked), the “hERG current change (%, negative = inhibition) at 10uM” value was -14.6%.

As for `COc1ccc(-c2nnc3n2CCCCC3)cc1OC`, the “hERG current change (%, negative = inhibition) at 10uM” value is 13.6%.

For the molecule `CN(C(=O)CCc1nnc(CCCCc2ccccc2)o1)C1CC(C)(C)NC(C)(C)C1`, the “hERG current change (%, negative = inhibition) at 10uM” value is 7.98%.

Turning to `COc1cccc(C2CC(=O)Nc3c2c(=O)n(C)c(=O)n3C)c1OC` (centres unmarked), the “hERG current change (%, negative = inhibition) at 10uM” value worked out at 17.7%.

With `CCOc1ccccc1NC(=O)C1CCCN(c2c(CC)c(C)nc3ncnn23)C1` (centres unmarked), the “hERG current change (%, negative = inhibition) at 10uM” value is reported as -65.1%.

As to `O=C(CNS(=O)(=O)c1ccc(F)cc1)Nc1ccccc1`, the “hERG current change (%, negative = inhibition) at 10uM” value is listed as 9.25%.

For the molecule `CC(=O)c1cccc(NC(=O)COC(=O)CCc2ccc(S(=O)(=O)N3CCOCC3)cc2)c1`, the “hERG current change (%, negative = inhibition) at 10uM” value is 6.05%.

Turning to `O=C1Cc2ccccc2C(=O)N1Cc1cccc(Cl)c1`, the “hERG current change (%, negative = inhibition) at 10uM” value is 11.5%.

Regarding `O=C(NCCc1ccc(F)cc1)C1CCCO1` (centres unmarked), the “hERG current change (%, negative = inhibition) at 10uM” value stood at 0.132%.

Take `Cc1cc(C(=O)OCC(=O)NC(C)C)c(C)o1`: the “hERG current change (%, negative = inhibition) at 10uM” value worked out at 5.59%.

For the molecule `O=C1CC(N2CCN(C/C=C/c3ccccc3)CC2)C(=O)N1Cc1ccc(N2CCCC2=O)cc1` (centres unmarked), the “hERG current change (%, negative = inhibition) at 10uM” value is given as -46.7%.
